Data on 41 compounds can be found in ChEMBL document CHEMBL4888484, “Replenishing the malaria drug discovery pipeline: Screening and hit evaluation of the MMV Hit Generation Library 1 (HGL1) against asexual blood stage Plasmodium falciparum ,using a nano luciferase reporter read-out” (2022).

SMILES strings stand for the structures. Hit rate of the full screen: of about 150,000 compounds, about 540 (0.36%) showed an effect of 50% or more. This is one part of the list.

The test system of the assay is Plasmodium falciparum. Description: Primary screen in NF54 nanoGlo assay, in single point, at 2uM, 72h; a lower Z score goes with more inhibition. The format is functional, Erythrocyte. The conditions noted are these: timepoint 72 hour.
Take `CCCn1ncc(C(=O)N2C[C@H]3CC=CC[C@H]3C2)c1C`: the “% Inhibition” value is listed as -10% and the Z score stood at 1.85.

In the case of `Cc1cc(CC(=O)N[C@H](C)CC2CCCCC2)no1`, the “% Inhibition” value is listed as -10% and the Z score is listed as 1.06.

On to `CC(=O)N1CCC[C@@](NCCn2cccn2)(c2nnnn2CCC(C)C)C1`, for which the “% Inhibition” value is reported as -16% and the Z score is recorded as 2.11.

Consider `CNc1cc(C(=O)N2CCC3(CC2)CC(=O)N(CC=C(C)C)C3)ccn1`, for which the “% Inhibition” value is recorded as -18% and the Z score was determined as 1.73.

Turning to `CC(C)(CNC(=O)c1c(F)cc(Br)cc1F)C(N)=O`, the “% Inhibition” value is listed as -3% and the Z score was 0.33.

On to `COc1nccc(C(=O)N2CCN(C3CC3)c3cc(F)ccc32)n1`, for which the “% Inhibition” value is -6% and the Z score is given as 1.07.

Take `CS(=O)(=O)CC1(CNC(=O)c2ccc(Br)cc2)CC1`: the “% Inhibition” value came out at 36% and the Z score is listed as -0.97.

Turning to `Cc1ncc(C(=O)N(c2ccc(Br)cn2)C(C)C)c(C)n1`, the “% Inhibition” value is -7% and the Z score came out at 1.45.

Consider `CN(C)c1n[nH]c(NCc2c(Cl)cnn2C)n1`, for which the “% Inhibition” value is recorded as -12% and the Z score is recorded as 1.24.

Turning to `O=c1[nH]c(N2CCC(O)CC2)nc2c1Cc1ccccc1OC2`, the “% Inhibition” value is reported as -1% and the Z score turned out to be 0.17.

Take `CCn1nccc1C(=O)N1CCC(c2noc(COCc3ccccc3)n2)CC1`: the “% Inhibition” value came to 21% and the Z score is -2.74.

In the case of `CC(=O)NCCCS(=O)(=O)c1ccccc1F`, the “% Inhibition” value is recorded as -2% and the Z score is recorded as 0.33.

With `C[C@@H](CNc1nc(-c2ccccc2)nc2nc(-c3ccc(Cl)cc3)oc12)N1CCCCC1`, the “% Inhibition” value turned out to be 79% and the Z score is recorded as -10.9.

On to `C=C(C)C[C@H](C)C(=O)N(Cc1ncc[nH]1)c1cncc(C)c1`, for which the “% Inhibition” value is given as -4% and the Z score is 0.64.

Take `Cc1nnc(-c2ccc(C(F)(F)F)cc2CO)s1`: the “% Inhibition” value is -6% and the Z score was 0.95.

On to `Cc1nc(NC(=O)c2cnn(CC(C)C)c2)n[nH]1`, for which the “% Inhibition” value is given as 8% and the Z score is given as -0.87.

`COc1ccc(-c2ccc(N3CCN(C(=O)CN(Cc4ccc(F)cc4)C(=O)C(C)C)CC3)nn2)cc1OC`: the “% Inhibition” value is -11% and the Z score is recorded as 0.99.

Consider `CN(CC(=O)N(C)C)Cc1nc(-c2cccs2)no1`, for which the “% Inhibition” value is listed as -18% and the Z score was 1.52.

Turning to `COC[C@]1(O)CCOC2(CCN(Cc3cccc(F)c3F)CC2)C1`, the “% Inhibition” value was -12% and the Z score amounted to 1.73.

Take `O=C(c1nn(Cc2ccc(F)cc2)c2c1COCC2)N1CCC(Cc2ccccc2)CC1`: the “% Inhibition” value was -12% and the Z score was determined as 1.54.

Regarding `O=S(=O)(Nc1ccc2sncc2c1)c1cccs1`, the “% Inhibition” value is on record as -2% and the Z score came to 0.19.

Take `CN(C)C(=O)c1nc2ccc(Cl)cn2c1CN1CCC[C@H](O)C1`: the “% Inhibition” value is reported as -18% and the Z score is recorded as 1.69.

With `COc1ccccc1C(=O)N1CCN(c2nc(C)nc(C)c2Cc2cc(C)ccc2C)CC1`, the “% Inhibition” value was -4% and the Z score is on record as 0.62.

Regarding `Cc1cccc(NC(=O)N2CCC(N3CCN(Cc4ccccc4)C(=O)C3=O)CC2)c1C`, the “% Inhibition” value is recorded as -16% and the Z score was found to be 1.43.

As to `CCN1CCN(C(=O)c2n[nH]c3c2CN(C(=O)c2cccc(C)c2)CC3)CC1`, the “% Inhibition” value is -10% and the Z score is 1.4.

Consider `O=C(Nc1ncc(C2CCOCC2)s1)C1CN(C2CCCCC2)C1`, for which the “% Inhibition” value is listed as -5% and the Z score is listed as 0.49.

With `Cc1cnn(C)c1S(=O)(=O)N[C@H]1CCOC[C@@H]1OCC1CCC1`, the “% Inhibition” value came to 10% and the Z score is reported as -1.32.

As for `Cc1nn(-c2ccc(C(C)C)cc2)c(C)c1[C@@H]1C=C[C@@H](NCc2ccccc2)C1`, the “% Inhibition” value is recorded as -3% and the Z score is given as 0.51.

On to `CC[C@@H](CC#N)Nc1ccc(C(F)(F)F)cn1`, for which the “% Inhibition” value was -1% and the Z score was 0.09.

As for `CCCS(=O)(=O)N(C)C[C@H]1CC(=O)N(CC)C1`, the “% Inhibition” value is -13% and the Z score came to 2.41.

Take `COc1ccc(-c2cc(-c3nc4ccccc4[nH]3)c(-c3ccccc3)o2)cc1OC`: the “% Inhibition” value came out at 0% and the Z score is given as -0.05.

For `C[C@@]1(C(=O)NCc2ccc(F)cc2)Cn2cnc(C(=O)Nc3ccc(F)cc3Cl)c2C(=O)N1C1CC1`, the “% Inhibition” value is reported as -13% and the Z score was 1.3.

As for `Cc1ccsc1C(=O)NC[C@H](NC(=O)c1sccc1C)C1CC1`, the “% Inhibition” value is on record as 7% and the Z score is given as -0.92.

With `O=C1CCC(C(=O)NC(Cc2ccccc2)c2nc3ccccc3o2)N1` (configuration not stated), the “% Inhibition” value is listed as -9% and the Z score came out at 1.26.

`CN(Cc1cccnc1)Cc1cc(-c2ccccc2)cs1`: the “% Inhibition” value is -8% and the Z score turned out to be 0.9.

For `O=C(Cc1n[nH]c(=O)c2cc(-c3ccc(F)cc3)nn12)NC1CCCC1`, the “% Inhibition” value is reported as -11% and the Z score is recorded as 1.43.

In the case of `Cc1c(-c2noc(C(=O)NCC[C@H](C)N3CCCCCC3)n2)oc2c(C)cccc12`, the “% Inhibition” value is given as -14% and the Z score is listed as 1.75.

Regarding `Nc1ccnc(Cn2c(=O)n(Cc3ccccc3)c3ccncc32)n1`, the “% Inhibition” value is 28% and the Z score was -3.14.

Take `CCN1CC[C@H](CN(C)Cc2[nH]nc(C)c2Cl)C1`: the “% Inhibition” value is -1% and the Z score was determined as 0.12.

In the case of `Cc1ccc2c(c1)N[C@H](C(=O)N1CCN(c3cc(Cl)ccc3C)CC1)NS2(=O)=O`, the “% Inhibition” value is on record as -6% and the Z score is listed as 1.2.

In the case of `CC[C@]1(c2nc(-c3ccncc3)no2)CCN(C(=O)OC(C)(C)C)C1`, the “% Inhibition” value was -8% and the Z score is recorded as 0.72.
